This is an account of results in the antibiotic and cytotoxicity screens of Wong et al. (2023).

SMILES strings stand for the structures. The list shows a part of the results.

For one test, the system named is HSkMC. The experiment in a line: cytotoxicity call (relative viability < 0.9). The note with it: 10 µM.
In another test the test system is S. aureus RN4220. The experiment in a line: growth inhibition call (relative growth <= 0.2). The note with it: 50 µM.

As to `C[C@@H]1CN([C@@H](C)CO)C(=O)c2cc(NC(=O)C3CCCCC3)ccc2O[C@H]1CN(C)C(=O)Nc1cccc2ccccc12`, in the test on HSkMC, the cytotoxicity call was “inactive”. For the same compound, the growth inhibition call with S. aureus RN4220 is “inactive”.
With `C[C@@H]1CN([C@@H](C)CO)C(=O)CCCn2nncc2CO[C@H]1CN(C)S(=O)(=O)c1ccc(Cl)cc1`, the cytotoxicity call in the test on HSkMC was “inactive”. Also, the growth inhibition call in the test with S. aureus RN4220 was “inactive”.
Consider `O=C(C[C@H]1CC[C@@H]2[C@H](COC[C@@H](O)CN2S(=O)(=O)c2ccc(Oc3ccccc3)cc2)O1)NCCN1CCCCC1`, for which, in the test with HSkMC, the cytotoxicity call was “inactive”. Further, in the test on S. aureus RN4220, the growth inhibition call was “inactive”.
As to `CC(C)NC(=O)Nc1cccc2c1O[C@@H](CN(C)Cc1ccc(Oc3ccccc3)cc1)[C@@H](C)CN([C@@H](C)CO)C2=O`, the cytotoxicity call in the test on HSkMC was “inactive”. In addition, in the test with S. aureus RN4220, the growth inhibition call is “inactive”.
For the compound `C[C@@H]1CCCCO[C@@H](CN(C)Cc2ccc(C(=O)O)cc2)[C@H](C)CN([C@H](C)CO)C(=O)c2cc(NC(=O)Nc3ccc4c(c3)OCO4)ccc2O1`, the cytotoxicity call with HSkMC was “inactive”. The growth inhibition call with S. aureus RN4220 is “inactive”.
Consider `COc1cccc(S(=O)(=O)N2C[C@@H](O)COC[C@H]3O[C@@H](CC(=O)N4CCN(c5ccccc5)CC4)CC[C@@H]32)c1`, for which the cytotoxicity call in the test on HSkMC was “inactive”. In addition, the growth inhibition call in the test on S. aureus RN4220 was “inactive”.
Turning to `COc1cccc(NC(=O)N(C)C[C@@H]2Oc3cc(C#CC4(O)CCCC4)ccc3S(=O)(=O)N([C@@H](C)CO)C[C@H]2C)c1`, the cytotoxicity call in the test with HSkMC is “inactive”. Moreover, the growth inhibition call in the test with S. aureus RN4220 is “inactive”.
Take `COc1ccc(S(=O)(=O)N(C)C[C@H]2Oc3ccc(NC(=O)Cc4ccccc4)cc3CC(=O)N([C@H](C)CO)C[C@@H]2C)cc1`: the cytotoxicity call with HSkMC is “inactive”. The growth inhibition call in the test with S. aureus RN4220 is “inactive”.
Turning to `Cc1cc(-c2cc(OC(=O)c3ccccc3)ccc2Cl)cc2nnc(Nc3ccc(OCCN4CCCC4)cc3)nc12`, the cytotoxicity call in the test with HSkMC is “active”. In addition, the growth inhibition call in the test with S. aureus RN4220 was “inactive”.
The like results for `O=C(Cc1ccncc1)Nc1ccc2c(c1)[C@H]1C[C@H](CC(=O)N3CCc4ccccc4C3)O[C@@H](CO)[C@H]1O2` were, in that order, “inactive” and “inactive”.
Take `COC(=O)c1c(CC[C@@H](CO)NC(=O)N[C@H](Cn2cc(C3(O)CCCCC3)nn2)C(C)C)oc(C(C)=O)c1C(=O)OC`: the cytotoxicity call with HSkMC was “inactive”. Besides, the growth inhibition call with S. aureus RN4220 was “inactive”.
For `O=C(C[C@@H]1CC[C@@H]2[C@H](COC[C@H](O)CN2Cc2ccccc2F)O1)N[C@H]1CCN(Cc2ccccc2)C1`, in the test with HSkMC, the cytotoxicity call was “inactive”. Besides, in the test on S. aureus RN4220, the growth inhibition call was “inactive”.
On to `C[C@@H](NC(=O)C[C@@H]1C=C[C@H](NC(=O)CN2CCOCC2)[C@H](CO)O1)c1ccccc1`, for which the cytotoxicity call in the test on HSkMC was “inactive”. Besides, the growth inhibition call with S. aureus RN4220 was “inactive”.
As to `CC(C)NC(=O)N(C)C[C@@H]1Oc2ccc(NC(=O)Nc3ccc4c(c3)OCO4)cc2CC(=O)N([C@H](C)CO)C[C@H]1C`, the cytotoxicity call in the test with HSkMC was “inactive”. In the test with S. aureus RN4220, the growth inhibition call was “inactive”.
With `CC(C)[Si]1(C(C)C)OCc2cc(-c3ccc(-c4ccc(Cl)c(Cl)c4)o3)nc(-c3ccccc3)c21`, the cytotoxicity call in the test with HSkMC was “inactive”. Besides, the growth inhibition call in the test on S. aureus RN4220 is “inactive”.
For the compound `Cc1ccc(S(=O)(=O)Nc2ccc3c(c2)C(=O)N([C@H](C)CO)C[C@H](C)[C@@H](CN(C)C(=O)Cc2ccccc2)OCCCC[C@H](C)O3)cc1`, the cytotoxicity call in the test with HSkMC was “inactive”. For the same compound, the growth inhibition call in the test on S. aureus RN4220 was “inactive”.
As to `COCC(=O)Nc1ccc2c(c1)C(=O)N(C)[C@@H]1CC[C@H](CC(=O)NCc3ccc(OC)cc3)O[C@H]1CO2`, the cytotoxicity call with HSkMC is “inactive”. The growth inhibition call in the test on S. aureus RN4220 is “inactive”.
Take `COCCCN1C(=O)[C@@]2(Cc3ccccc31)c1ccccc1C(=O)N(C1CCCCC1)[C@H]2c1ccc(CO)cc1`: the cytotoxicity call with HSkMC is “inactive”. Also, the growth inhibition call in the test with S. aureus RN4220 is “inactive”.
In the case of `COc1ccc(-c2cc(=O)c3c(O)c(OC)c(O[C@H]4O[C@H](CO[C@@H]5O[C@@H](C)[C@H](O)[C@@H](O)[C@H]5O)[C@@H](O)[C@H](O)[C@H]4O)cc3o2)cc1`, the cytotoxicity call with HSkMC was “inactive”. Also, the growth inhibition call in the test on S. aureus RN4220 was “inactive”.
`C[C@@H]1CN([C@H](C)CO)C(=O)c2cc(NC(=O)CCC(F)(F)F)ccc2O[C@H]1CN(C)Cc1ccc(C(F)(F)F)cc1`: in the test on HSkMC, the cytotoxicity call was “inactive”. Also, in the test on S. aureus RN4220, the growth inhibition call is “inactive”.
As to `CC(C)NC(=O)Nc1ccc2c(c1)C(=O)N([C@H](C)CO)C[C@H](C)[C@H](CN(C)C(=O)Nc1ccc(C(F)(F)F)cc1)OCCCC[C@H](C)O2`, the cytotoxicity call in the test on HSkMC was “inactive”. In addition, the growth inhibition call with S. aureus RN4220 is “inactive”.
For the compound `COc1ccc(NC(=O)Nc2ccc3c(c2)C(=O)N([C@H](C)CO)C[C@@H](C)[C@@H](CN(C)Cc2ccccc2)OCCCC[C@H](C)O3)cc1`, the cytotoxicity call in the test on HSkMC is “inactive”. For the same compound, the growth inhibition call in the test with S. aureus RN4220 is “inactive”.
Regarding `C[C@@H]1CCCCO[C@H](CN(C)Cc2ccncc2)[C@H](C)CN([C@@H](C)CO)C(=O)c2cc(NC(=O)CCC(F)(F)F)ccc2O1`, in the test with HSkMC, the cytotoxicity call was “inactive”. Besides, in the test with S. aureus RN4220, the growth inhibition call was “inactive”.
With `Cn1cnc(CCNC(=O)C[C@H]2CC[C@H]3[C@@H](COC[C@H](O)CN3C(=O)C3CC3)O2)c1`, the cytotoxicity call in the test on HSkMC was “inactive”. Further, the growth inhibition call with S. aureus RN4220 was “inactive”.
With `C[C@@H]1CCCCO[C@H](CN(C)Cc2ccc(C(F)(F)F)cc2)[C@@H](C)CN([C@@H](C)CO)C(=O)c2cc(NC(=O)c3ccncc3)ccc2O1`, the cytotoxicity call with HSkMC is “inactive”. Further, in the test with S. aureus RN4220, the growth inhibition call is “inactive”.
On to `Cc1noc(C)c1NC(=O)Nc1ccc2c(c1)C(=O)N([C@@H](C)CO)C[C@@H](C)[C@@H](CN(C)C(=O)NC1CCCCC1)OCCCC[C@@H](C)O2`, for which the cytotoxicity call with HSkMC is “inactive”. For the same compound, the growth inhibition call in the test with S. aureus RN4220 is “inactive”.
For `COc1ccc(CN(C)C[C@@H]2OCCCC[C@H](C)Oc3ccc(NC(=O)Nc4ccc(F)cc4)cc3C(=O)N([C@@H](C)CO)C[C@H]2C)cc1`, in the test on HSkMC, the cytotoxicity call is “inactive”. Also, the growth inhibition call in the test with S. aureus RN4220 was “inactive”.
On to `C/C=C/c1ccc([C@@H]2[C@H](CO)N(S(=O)(=O)Cc3ccccc3)C23CN(C(=O)C2CCOCC2)C3)cc1`, for which the cytotoxicity call with HSkMC was “inactive”. For the same compound, in the test on S. aureus RN4220, the growth inhibition call is “inactive”.
Consider `COc1ccc(NC(=O)Nc2ccc3c(c2)C(=O)N([C@@H](C)CO)C[C@H](C)[C@H](CN(C)C(=O)Nc2ccc(C(F)(F)F)cc2)OCCCC[C@H](C)O3)cc1`, for which the cytotoxicity call in the test with HSkMC is “inactive”. Also, in the test with S. aureus RN4220, the growth inhibition call is “inactive”.
In the case of `Cc1cc(=O)n2ncnc2n1CC(=O)NN`, in the test on HSkMC (human skeletal muscle cells), the cytotoxicity call is “inactive”. The growth inhibition call in the test with S. aureus RN4220 was “inactive”.
